The source gives no read counts; variants with many changes may rest on few reads.

B1: CPEB3 Ribozyme (parent)
chain: UAACAGGGGGCCACAGCAGAAGCGUUCACGUCGCAGCCCCUGUCAGAUUCUGGUGAAUCUGCGAAUUCUGCUGUAUAUCUC

In the data set the parent is B1. The data set is described as follows: self-cleavage, relative activity (ratio to wild type); higher = more cleavage; in vitro, sequencing. The method in brief:
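CPEB3 self-cleaving ribozyme mutant libraries were made by rounds of error-prone PCR, barcoded, and transcribed in vitro with T7 RNA polymerase for 5 hours at 37°C. Cleavage occurred during transcription and a 15 min DNase I step before EDTA stop. RNAs were reverse transcribed with template switching and Illumina-sequenced, with DNA sequencing mapping barcodes to variants. Relative activity is the variant's cleaved/total read fraction divided by wild type's (minimum 5 reads), averaged across three batches.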
Turning to C4U G19U U58A, the self-cleavage turned out to be 0.13.
The figure for A5C A15G U54C U58C is 0.31; for C4U U26C U43A U51C U74C it is 0.45; for C4U U48A G52U G53A U54C it is 1.12.
A5G A15G A18U U60C: the self-cleavage was 0.09.
As for A5C C11U U41C A57G C59U, the self-cleavage was 0.15.
The figure for A5G A18G A35U U49C U67C U80A is 0.08; for A5G A13C U26A U49C U60C it is 0.12; for A5G A15G C17U C40U G46U C68U A77G it is 0.08.
The figure for A5G A15G A21G U43C is 0; for A5C G16A A28G A56G U58C U60C it is 0.22; for A5C A20U U41A A47G U67C it is 0.18.
The figure for A5G A15U A35U U41G is 0.6; for A5C U26C G46A it is 0.34.
With C4U G36C A45G, the self-cleavage was determined as 0.47.
As to A5G A15G A18U A64G, the self-cleavage came out at 0.18.
On to A5C A21G A57G C62U U72C U80A, for which the self-cleavage was 0.09.
The figure for A5G A15U U25C A57G is 0.08; for A5G A15U U54C U80C it is 0.65; for A5G A15G U31A U41C U54C U72A it is 0.23.
The figure for A5G A15G U41C A64G U69C U80A is 0.16.
The figure for A5C A18U A45U is 0.33; for A5G A18G C38U U67C it is 0.07.
In the case of A5G A18G A56C U78C, the self-cleavage amounted to 0.43.
The figure for A5G A18G U51A U69A U72C A75G is 0.14.
The figure for C4U U51C C62U A64G U76A is 0.35.
The figure for A5G A13C G24A A45U is 0.32; for A5G A13G A28U U78C it is 0.2; for A5C U43C U74C it is 0.82.
With A5G A18G U26A C38A U58C U66C U69C, the self-cleavage stood at 0.22.
As for A5C U41A A57U U67A, the self-cleavage turned out to be 0.14.
The figure for A5G A13U A20G A28G A35G U48G U76C is 0.12; for A5G A18G U43A C79A it is 0.86.
Under A5G A15G U54C stands 0.12; under A5G A15C U26A U41A U51C U60C, 0.13; under A5G A15G U72C C79G, 1.01.
Turning to C4U G22C A47U, the self-cleavage stood at 0.11.
As to A5C A15G A56U, the self-cleavage came to 0.39.
The figure for A5G A13U U25C U26C U51C U58G U76A is 0.06; for A5C U48C U69A U78C it is 0.35; for C4U U26A U76C it is 1.03.
Consider C4U U41A A57G U78A, for which the self-cleavage came out at 0.33.
Take A5G A13G A15U C29G U74C: the self-cleavage turned out to be 0.13.
Under A5C A20U A35G U49C stands 0.14; under A5G A18G U25A U66A, 0.07; under A5C A15U A35U, 0.47.
Under A5G A18G G33C U54A stands 0.39; under A5G A15G G46A A47G G61A A65G, 0.05.
As for A5G A13U C14U A45U, the self-cleavage is 0.15.
The figure for A5G A15U U26G is 0.51.
Regarding A5G A13G A15C A45U, the self-cleavage came out at 0.11.
Under A5G A18U A28G U60C stands 0.12.
Regarding A5G A18G A20U U26C, the self-cleavage stood at 0.61.
A5C U60A A77U: the self-cleavage is 0.42.
The figure for A5C U25C A35G G73A is 0.25; for A5G A13U U41A U49A A56C U72A it is 0.09.
In the case of A5C C12U U31C U41C U72C, the self-cleavage was 0.88.
Under A5C A21G G52C G63A stands 0.42.
For A5G A15U A20G U26C, the self-cleavage is 0.51.
With A5G A15G A64U, the self-cleavage stood at 0.43.
As to A5G A15U U78C, the self-cleavage stood at 0.37.
For A5G A13G A18U A57G, the self-cleavage turned out to be 0.19.
In the case of A5G A15G A21U, the self-cleavage was 0.59.
A5C G9U A28U C32U: the self-cleavage came to 0.27.
With A5C U43C U74C U80C, the self-cleavage stood at 0.93.
On to A5G A18G U51C A65G, for which the self-cleavage came out at 0.42.
As to A5G A18G A28U U41A U69A A75U, the self-cleavage is 0.07.
The figure for A5G A15G U26A A45U U60C U67C U72A is 0.05.
With A5G A13G C23U U31G G33A, the self-cleavage is 0.09.
Under A5C U43C U51G A64G U66C stands 0.11; under A5C G9U A15G A18U C38A U48C, 0.21.
As for A5G A18G A21C U26A U60G, the self-cleavage was determined as 0.47.
For A5G A15C A35U U41C U67C, the self-cleavage amounted to 0.31.
Under A5G A15G A64G U80A stands 0.61; under A5C C59A U80C, 0.48; under C4U U26C U41G A56G U74C U80C, 0.29.
On to C4U U26C A64G U69A U78C, for which the self-cleavage was 0.28.
With A5G A15G A47C U51C, the self-cleavage was 0.25.
Under A5G A18U U43A A57G G70C C81U stands 0.1; under A5G A13G C14U G33A U41A G52U, 0.06.
In the case of A5C G24A U41A U80C, the self-cleavage is 0.31.
Under A5C A28G U31C U66C stands 0.27; under A5C C11U A28U U66C, 0.07.

Values taken from the RNAGym collection of RNA variant scans (doi:10.1093/nar/gkz1192).
